Measurements published in PubChem BioAssay AID624296 (National Center for Advancing Translational Sciences (NCATS), 2012).
In all, about 350,000 compounds went through this assay and about 9,900 (2.8%) were called active. The inconclusive results got no clear call from the source; some entries with a clear call stand among them for comparison. Calls come from the whole dose curve; as a rule, active = well fitted activation curve with a large enough effect; inconclusive = small, poorly fitted or top-dose-only effect; inactive = no such curve, though single readings can be large or run the other way. Potencies of inconclusive entries are left out as doubtful fits.

test: A quantitative high throughput screen for small molecules that induce DNA re-replication in MCF 10a normal breast cells.; note: nearly all actives have a fitted effect of over 50% in size; conditions: MCF 10A DNA re-replication, Hoechst nuclear intensity, 48 h; series mostly up to 46.1 µM
Potency is the fitted concentration of half-maximal effect; tags give direction and shape of the fitted curve.

Compound	Potency
O=C(c1ccc(Cn2c(=S)[nH]c3ccc(Br)cc3c2=O)cc1)N1CCN(C2CCCCC2)CC1	inconclusive [activator, single point]
Cc1cccc(N2C(=O)C(Cl)=C(Nc3c(C)n(C)n(-c4ccccc4)c3=O)C2=O)c1C	inconclusive [activator, full curve, poor fit]
CC(Sc1nc2ccccc2s1)C(=O)Nc1nnc(C(C)C)s1 (stereo not drawn)	inactive
CC1=C([N+](=O)[O-])C(c2ccc(Cl)cc2)NC(=O)N1 (stereo not drawn)	inactive
O=C1SC(SCc2ccccc2Cl)=N/C1=C\c1ccc(C(=O)O)cc1	inconclusive [activator, single point]
O=S(=O)(c1ccc(Cl)cc1)N1CCN(CCc2ccncc2)CC1	inconclusive [activator, single point]
CC(C)(CNS(=O)(=O)c1ccc(Cl)cc1)N1CCCCC1	inconclusive [activator, full curve, poor fit]
Cc1ccc(OS(=O)(=O)c2ccc(-c3csc(C)n3)s2)c(C)c1	inconclusive [activator, single point]
Cc1ccc(C2=NN(Cc3nnc(-c4ccccc4)o3)C(=O)SC2)cc1	inconclusive [activator, partial curve, poor fit]
CCOc1ccc(-c2csc(NC(=O)c3ccc(S(=O)(=O)N4CCc5ccccc5C4)cc3)n2)cc1	inconclusive [activator, single point]
c1ccc(-c2nc3c4ccccc4ccn3c2CN2CCCCC2)cc1	inconclusive [activator, single point]
O=C(Nc1cccc(Cl)c1)Nc1ccccc1NS(=O)(=O)c1cccs1	inconclusive [activator, single point]
CCOC(=O)c1nnc(-c2cccs2)nc1Oc1ccccc1C(=O)OC	inconclusive [activator, single point]
COCCNC(=O)Cn1cc(/C=C(\C#N)C(=O)NC2CCCC2)c2ccccc21	inconclusive [activator, single point]
CCOCCCn1c(=N)c(S(=O)(=O)c2ccccc2)cc2c(=O)n3cc(C)ccc3nc21	active: 8.2 µM
Cc1ccccc1C(=O)NNC(=S)NC(=O)c1ccccc1	inconclusive [activator, partial curve]
CC(=O)c1cccc(NC(=O)c2ccc3c(c2)CCN3S(=O)(=O)c2ccccc2)c1	inactive
COCCCNC(=O)Cn1nnc(-c2ccccc2NC(=O)c2ccccc2F)n1	inconclusive [activator, single point]
